# Experimental data from PMC10726135.
# The list shows a part of the results. At the low end of the ranking, values are background and their order means little. Measured with an extract: partners may take part in the binding.
# Target: T1, HNF4alpha8 (COS-7 nuclear extract) (UniProt P41235-5)
# T1 sequence: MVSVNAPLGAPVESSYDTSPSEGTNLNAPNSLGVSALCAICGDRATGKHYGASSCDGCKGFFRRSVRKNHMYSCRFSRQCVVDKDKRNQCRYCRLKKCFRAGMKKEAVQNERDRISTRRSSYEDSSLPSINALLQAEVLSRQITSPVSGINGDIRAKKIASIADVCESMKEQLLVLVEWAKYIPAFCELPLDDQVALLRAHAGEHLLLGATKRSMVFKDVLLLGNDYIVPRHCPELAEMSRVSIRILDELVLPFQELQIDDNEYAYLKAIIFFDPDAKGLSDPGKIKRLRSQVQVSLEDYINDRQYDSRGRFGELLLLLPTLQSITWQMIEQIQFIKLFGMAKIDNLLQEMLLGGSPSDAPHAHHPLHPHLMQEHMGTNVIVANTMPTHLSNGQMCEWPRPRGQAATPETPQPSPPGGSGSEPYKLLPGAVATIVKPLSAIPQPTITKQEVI
# Test: protein-binding microarray
# Details: COS-7 nuclear extract on double-stranded Agilent 4x180k PBM; binding buffer, salt, pH and temperature not given; high values mean tight binding; double strand, one strand shown; sequences stand for … in …GCCTAGGGAGATTAGAGTATCGGTCGA
row,Sequence,binding signal (log2 normalized intensity)
1,TCTCTGGCATGTATTTATCAACATTCTTTC,1.44
2,GCAATCTAAGTCTGGCTCCTGAAACTAAAG,-1.44
3,GAGGAGAGGCAGTGGCCTGAGGCAGCCAGT,-1.25
4,AGAACTAAGCTGTTGCGTAAGGGTCTGACC,1.56
5,GATACACCCCTAATGAATGGCAAATTAAAC,0.477
6,TTTTCTTCCACCTCCCTCCATGCTGTAGAT,2.34
7,TGCTTGATAAGACTGACAACCGGCTCTTCC,-1.39
8,AAGAGCAATCATCAAGGTGGTTTCACTTCA,-0.868
9,CACCCTGTTGCACAAGCTGTGTGGCATGGT,0.587
10,ATTCATGGACAGCCTTGCCACATGGTCACC,-1.01
11,CCTCTTCCCTCATATAATTTACATAACAGG,1.31
12,AGGACAAAAGTAAATATGGTTTACCATATT,-1.16
13,TGTTGAAAAGAGCATAAGGTTTCCATCAAG,-1.31
14,TTCAGCAGCATCTAAACTCTACTCACTAGA,-1.37
15,TTTGTAGGCAGCTAGGCAGGCTCAGAACTA,-1.32
16,CTTTGACCCTGCTGTAGTGTGTAAGTATGC,1.95
17,TCCACCCTGAAAGAGAGGAGGCTGAAGACT,-1.3
18,AATGAGGTCAATAGTCCAGATACAGATGGC,3.88
19,ATAGCTGCCTGTGTGTTCTGCTATTCATTA,0.562
20,CAGAGGAACAGAGGGGTCTGAGCACATCAC,-1.41
21,GGGGACGGAAGTTGCAGTGAGCTAAGATTG,-1.2
22,CTTCATTGTGCACCCACTTGGATAATTTCT,0.583
23,AAGCAGCTGTGATGAGGCCAGCAGGGTGCC,-1.17
24,GAACCCCCAGGTCACCCACAACCTACCCTT,4.85
25,CTTTGGCCGTGCATGCTTGGACTCTGAAGG,3.77

row,Sequence,binding signal (log2 normalized intensity)
1,CCCTGTTATTAGTCCAAGAGATTTCTACAG,0.355
2,GTCATAATTTGATCCAGTGTGCAAATGTGT,2.05
3,AAAAAGATGGTCTTACAACATAGTGATTTA,0.209
4,GGACTTTGGGCTGTGTTTTGCCCCTGCAGA,4.12
5,TCTGTTCATTGATAAAGGGTTACAAACTTC,0.93
6,GACTGGCATTCCCCTATGTCTAGGACTCTA,1.25
7,GAGGGCATGTTGAGTGGAATATGAGGTCAG,2.24
8,TTAGGAGGATGACAAAGAGCAAGTGACCCT,4.46
9,GAAACAGTCTGATTCTAGGGCCCATGCCCT,0.766
10,TCCAGGGCCGCCCAAGCGAATATGTCAGGC,-1.39
11,TTTCTTCCCTAATGGACATCTCTAGGAACT,-1.33
12,TAGGAATCACACAACTTTCATTGAACTGCT,-1.22
13,ATGCAGCCTTGGGCAAGTTACTTAAGCCAT,-1.44
14,TTTCTGAGAAACTTCTTTGTGATGTGTGGA,2
15,TGCAAGCAAACCTGCCCTTTGCTCCAGAGG,4.45
16,GGTCAATGTCCACACCCCAGTTTCATCAAC,2.8
17,CCAGGTCGAAGTTTATGTTTACTGTGGATC,2.18
18,TCACTCAGTCCACATGGTGTCTTTTGTTGT,2.06
19,TTCAATGGTGCTTTTGATATTGTTGTAAAG,1.77
20,GTGGTCATGTAGGTGTCTCAGGAATGTCCT,1.81
21,GGATGGGGTCACGAGACGGTGTCCCTGGCC,0.531
22,GTGCACCCTTCCTCTGCAGCCGCCCTTTTG,2.25
23,TTTCATCTCTGTAAACTGGCCAGAAGGTCA,3.39
24,GGTTGTGAGGGAGGGCACAGGCAACAGAGG,-1.34
25,CCCTTTGACCTCTGCTTCCTGCTACAGAGC,2.76

row,Sequence,binding signal (log2 normalized intensity)
1,CACCTTCTTCCTAGGCAATCCCATGACCTT,3.52
2,TGGGACCATGAGTACCAGGTCAAAAGTTCA,4.74
3,GTCACCTCCACCCACCCGTGCATCAACATA,3.46
4,GCATGCTATTTCAGGAATGTGACCCCTTTC,5.65
5,GCCCAACAGCATTAAGCTGAGGCAGAGTTG,-1.26
6,TCCTCCAACTGCCACGGTAAATATTATCAT,0.355
7,AAAGAGGGTGTAAGAGTGAACTCTGACCAT,4.94
8,TGAGAAAAGAACCATGAGAGGGTTAAAAAC,-1.11
9,ACATTCTGAGCCAGCACTTCGACCTCACAT,2.44
10,AAGCAATGGCTACCAAGGAGTGGACTGTTC,2.02
11,GACAGGAGGTATGCCAGGAATGCTGAGGAG,-1.26
12,CTTCCACCCACTTTATCTTCTATAGGAATT,0.738
13,TATCCAATAAAACACTATCTTCTTTCAGTG,0.405
14,TTTATTTAGCCTCACTAAGATAGGGAAGCT,-1.37
15,TCTGCAGGGTTAAATCTCGGTATAATTCCT,-1.05
16,TTTGGAATTAAGGAGATTTGGCTTTGAATT,-1.08
17,CCTCCTCTCTGAGCAGTCAAACTGGTTTCT,0.708
18,CCCCTCAGTTTTTCTCTTTTGACCTTTGGA,9.54
19,AAGTCCAGTCTTATCTGAGACTCAAGGCAA,-1.17
20,AAACAAATTTAGCAAGACTGCAAAATAGAC,-1.22
21,AGGGATGGGAACCGACCTTTGGTTCCTGAA,5.61
22,TTTCATCTTCTTAGCCTTTGAACCCCACAC,5.48
23,CTTCACATATTTTGAAAGAAAGAGACCTTT,4.58
24,GATAGCTCAGGGATTAACGACTCATGAAGA,-1.35
25,TTCCAGGATGAAGGAAGAGGGAAGACCAAA,-1.23

row,Sequence,binding signal (log2 normalized intensity)
1,ACAAATGAGCAAACTAATGGAATGTGATAG,-0.665
2,ACCGCTCACTGCTCCAGCCACTCATTCTTG,-1.35
3,CAGGCCCCAGGGACTTTGGCCTTACTTGGC,4.92
4,CCTGAGGCTGTGGAGGGCAGTGGATGGGGG,-1.29
5,AGCCAATATTTGCAAGGCTGTTGGCAGATT,-1.13
6,CCTTTACCCTGACCTGTCAAGCAATGATCT,1.39
7,TGACACTCGAGGATCAGAGACACGATGTTC,-1.29
8,TGTGATCTCTAGACTAAGGGCACAGGGTGA,0.175
9,CCACAACAGAACCTTGTTTTGTCTTCTGTT,0.586
10,GTTCCAGCTGCTTCAGGAGCCCCCTGGGGG,-1.33
11,AAGGCGGAAGTACTGCCCTTAACTCCCGGC,-1.22
12,GCCAAAAGTAGGGAGGAGGGGAGGGGCCCA,-1.37
13,GGGGAGGGCATGGACTTTGGAATTAAGGAG,5.91
14,GGCTCAGGACAGGTGAGCCCGGCAGAGAGT,-1.24
15,TCAACCTTCATTCTCATCTTCTATGATAAG,1.16
16,CGACCTCCCCGTCACCCTCCCCGCCACCCC,7.01
17,CATAACTGACTGTGTCTGTTTACCCACTTG,0.804
18,CACAGTACTGTCTTTTTGCCACTAGGGGTC,3.77
19,GTGATTTATGAAGGGGGGTGGGGAGGCAGG,-1.35
20,TGGTGGAGCAAAAAGGCCGTTCAAAGGCAG,-1.26
21,AGAGACAGAGAGAGAGAGAGAATGACCCTT,5.1
22,GTTCATTTTACAATGCAAACCTAACAGGCT,-1.28
23,AACTCTAGTGATCTTATCAGCAAGGGCATT,1.09
24,CCCTTGTCTTCCTCAAATTACAAAAGGAGT,1.39
25,CCACTAGCAACAGCTGCAGTGAAATTCTGG,-1.31

row,Sequence,binding signal (log2 normalized intensity)
1,CTTGGCTAACAAAGCTCAGGGCAAAGACTC,-1.38
2,TCAGTTTCATTGCACTTTGCCCTCTCTTCA,7.35
3,AGTCAACATGTCATTGGCAGAAGGTGGAAC,1.54
4,GCCAACAAACTCAATCCTGGCCTCTGAGGT,-1.4
5,GCTCCTTTGAGCACTGCTGACTGTTTGCTT,1.02
6,ACAATAGGAATTCAACCAATGTGGAGCTGC,-1.32
7,CCAGGTGTGCAGAGAGCAAACGAACCGGCA,-1.25
8,CTCCCTAGAGCAGCAGTAGGCTCTCGGGCC,-1.22
9,TTTTTGAGATGGAATCTTGCCCTGTCGCCC,3.19
10,CAAGGGTTCAGGGCTCAGTTGACATGATAC,1.55
11,CCCCGGGAGCAGCATGGCCCTTTGCAGCCC,-0.469
12,GGGCAAGCCCACTCTCTGAGTCTGATAAGG,-1.35
13,TAAATATGTTCCAAAGTTCAACCAGATGAT,3.63
14,AGGTAGAGAGCTGTCTGCTGAGGATGTGGC,0.382
15,GCTGTGATGTTTGCCCATGATCATATGGAC,2.29
16,GCAGGAGCCACCTGTCACTCAATGCAGCAG,-1.34
17,CAATGCCCCAGAAAGCCAGCAGGGGCTGCT,-1.22
18,CTGGGACCCACCCACCTATGTCCTTATCCT,1.44
19,GCTTTCTTCCAAGGCTGCAAGCAAACCTGC,-1.37
20,TCATGAGCATGCTTCCCAAATGGAGTGCCC,1.64
21,CACCAGCATGGTGATGCTAGCTACTACATG,-1.39
22,CAACTTCCCCAACCCTTGCACTGCTGGTTT,1.55
23,GAGTTTCTGCAGTTCTGGGCCAAAGGTCAT,7.29
24,CTGAAGTCAATGTCAGCTAGAGGCCCTGCA,-1.34
25,ATGACCTCTTTTAGTAACTGACTTTAACTT,1.03

row,Sequence,binding signal (log2 normalized intensity)
1,GGTAAGCCACTGAACTTTCACTGCCTATCT,-0.69
2,TGTTCCTCCAGACACGGGGATAACACCTGC,-1.19
3,CAGTGAGGATGTGTGCTCGAGGTGGACTTT,7.48
4,ACATTTATTGTGAGATTACGTAAGTGAAAG,1.29
5,TCCAAAGTTCAAACTCTGAAAGCACTAAGT,2.09
6,AGTGGCACTCTCTGGGTTAAACGTGCAGCA,0.255
7,CCTAGCACTTCCCGAGTGAGGCAATGCCTC,-1.25
8,GCACAATCAGCAAACACAGATAGCATAATC,-1.29
9,TTCCATGTTTGTCTTTGCATTGCTCAATTT,1.35
10,GCCATTGACGGTATGTGAATGCCTGGGCAT,0.108
11,GCTTCACAGCCCTCCAACTATGCTAAGAAT,-0.587
12,CCAGCGGGTCATTAATTCCCAGGAATTGGC,-1.13
13,AAGTCTGAGATGAAGAGGCCAGGGGCACTC,-1.39
14,AAACACACTTGCTCTAATCCTTTAAAAAAA,-1.4
15,AGATAAATGGTGTAGAGGCCAGAGGTCGTG,2.91
16,AATGTGCCCTTTGACCTCTCTCTCCTAACT,7.21
17,GCCTTGGAAAACCCGGCGCGGACATAAAAT,-1.26
18,TGCGTCCCCAGGTGAACTCAGTCCTTTCAG,1.34
19,TCATTTTCTTATCTCACACAGTACTTTGTA,2.35
20,GAGGCCTCATTGGCCAGTATCCGCCTTCAC,-1.26
